Experimental findings from US20110212094A1 (AbbVie / Abbott, published 2011) are described below.

For assay [1], the target named is T1, Recombinant Human SOST (human, UniProt Q9BQB4 24-213).
T1 construct: R&D reagent in Biacore; also called sclerostin; Human sclerostin (Abbott PR-1261069)
T1 sequence (looked up): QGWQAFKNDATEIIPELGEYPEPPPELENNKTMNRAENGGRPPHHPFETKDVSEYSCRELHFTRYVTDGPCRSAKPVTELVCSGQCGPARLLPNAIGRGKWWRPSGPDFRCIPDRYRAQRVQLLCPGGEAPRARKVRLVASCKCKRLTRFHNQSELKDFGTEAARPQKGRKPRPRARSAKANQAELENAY
Description: Biacore SPR. The procedure: (§1) The BIACORE assay (Biacore, Inc, Piscataway, N.J.) determines the affinity of antibodies or DVD-Ig with kinetic measurements of on-rate and off-rate constants. Binding of antibodies or DVD-Ig to a target antigen (for example, a purified recombinant target antigen) is determined by surface plasmon resonance-based measurements with a Biacore® 1000 or 3000 instrument (Biacore® AB, Uppsala, Sweden) using running HBS-EP (10 mM HEPES [pH 7.4], 150 mM NaCl, 3 mM EDTA, and 0.005% surfactant P20) at 25° C. All chemicals are obtained from Biacore® AB (Uppsala, Sweden) or otherwise from a different source as described in the text. For example, approximately 5000 RU of goat anti-mouse IgG, (Fcγ), fragment specific polyclonal antibody (Pierce Biotechnology Inc, Rockford, Ill.) diluted in 10 mM sodium acetate (pH 4.5) is directly immobilized across a CM5 research grade biosensor chip using a standard amine coupling kit according to manufacturer's instructions and procedures at 25 μg/ml. Unreacted moieties on the biosensor surface are blocked with ethanolamine. Modified carboxymethyl dextran surface in flowcell 2 and 4 is used as a reaction surface. Unmodified carboxymethyl dextran without goat anti-mouse IgG in flow cell 1 and 3 is used as the reference surface. For kinetic analysis, rate equations derived from the 1:1 Langmuir binding model are fitted simultaneously to association and dissociation phases of all eight injections (using global fit analysis) with the use of Biaevaluation 4.0.1 software. Purified antibodies or DVD-Ig are diluted in HEPES-buffered saline for capture across goat anti-mouse IgG specific reaction surfaces. Antibodies or DVD-Ig to be captured as a ligand (25 μg/ml) are injected over reaction matrices at a flow rate of 5 μl/min. The association and dissociation rate constants, kₘ (M⁻¹s⁻¹) and koff (s⁻¹) are determined under a continuous flow rate of 25 μl/min. Rate constants are derived by making kinetic binding measurements at different antigen concentrations ranging from 10-200 nM. The equilibrium dissociation constant (M) of the reaction between antibodies or DVD-Igs and the target antigen is then calculated from the kinetic rate constants by the following formula: KD=koff/kₒₙ. Binding is recorded as a function of time and kinetic rate constants are calculated.

For assay [2], the target named is T2, Recombinant Human TNF-α/TNFSF1A (human, UniProt P01375 part only).
T2 construct: Bought reagent for Biacore; also called huTNFα
Description: Biacore SPR. The procedure:
as §1

For assay [3], the target named is T3, Recombinant Human β-NGF (human, UniProt P01138 part only, limits assumed).
T3 construct: Bought reagent used in the Biacore analyses
Description: Biacore SPR. How it is done: as §1
Background: In SPR one partner is held on a chip, and binding of the other changes the refractive index at the surface.

Assay [4] addresses T2, Recombinant Human TNF-α/TNFSF1A. Description: cell-based or functional assay.
Assay [5] concerns the target NGF (Neuroscreen-1 bioassay). Description: cell-based or functional assay.

T3 sequence (P01138 122-239 limits assumed): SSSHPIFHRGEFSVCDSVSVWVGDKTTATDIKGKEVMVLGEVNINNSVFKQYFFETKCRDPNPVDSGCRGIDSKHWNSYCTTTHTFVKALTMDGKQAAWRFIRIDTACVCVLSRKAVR
T2 sequence (P01375 77-233 limits assumed): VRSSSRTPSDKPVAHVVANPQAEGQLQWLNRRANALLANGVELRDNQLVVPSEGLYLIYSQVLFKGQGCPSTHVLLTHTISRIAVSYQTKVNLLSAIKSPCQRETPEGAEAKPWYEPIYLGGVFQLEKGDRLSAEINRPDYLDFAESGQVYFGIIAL

B1: DVD1257 (bispecific antibody, human IgG1, kappa)
heavy: EVQLQQSGPELVTPGASVKISCKASGYTFTDHYMSWVKQSHGKSLEWIGDINPYSGETTYNQKFKGTATLTVDKSSSIAYMEIRGLTSEDSAVYYCARDDYDASPFAYWGQGTLVTVSAASTKGPEVQLVESGGGLIQPGGSLRLSCAASGFTVSRNYMSWVRQAPGKGLEWVSVIYSGDRTYYADSVKGRFTISRDNSKNTLYLQMNSLRAEDTAVYYCARGEGGFDYWGQGTLVTVSS[gap - human IgG1 constant region]
light: DVQMIQSPSSLSASLGDIVTMTCQASQGTSINLNWFQQKPGKAPKLLIYGSSNLEDGVPSRFSGSRYGTDFTLTISSLEDEDLATYFCLQHSYLPYTFGGGTKLEIKRTVAAPEIVMTQSPATLSVSPGERATLSCRASQSVSSNLAWYQQKPGQAPRLLIHGASIRATGLPARFSGSGSGTEFTLTISSLQSEDFAVYYCQQYNYWWTFGQGTKVEIKRTVAAPSVFIFPPSDEQLKSGTASVVCLLNNFYPREAKVQWKVDNALQSGNSQESVTEQDSKDSTYSLSSTLTLSKADYEKHKVYACEVTHQGLSSPVTKSFNRGEC
notes: constant regions from vectors V1/V2; also called DVD1257H; DVD1257L
With B1, in assay [1], the dissociation constant (Kd) (usually a measure of binding affinity in units of concentration) is 0.0312 nM; the koff (commonly a measure of how fast the partners let go of each other) is 0.000215 s⁻¹; the kon – broadly, the rate constant with which the complex forms – is 6.51e+06 M⁻¹ s⁻¹. In assay [2], the Kd was determined as 0.142 nM, the off-rate constant (koff) turned out to be 2.66e-05 s⁻¹ and the on-rate (kon) is 188000 M⁻¹ s⁻¹.

B2: DVD1250 (bispecific antibody, human IgG1, kappa)
heavy: QVQLVESGGGVVQPGRSLRLSCAASGFTFSSYDMHWVRQAPGKGLEWVAVIWSDGSIKYYADSVKGRFTISRDNSKNTLYLQMNSLRAEDTAVYYCAREVESAMGGFYYNGMDVWGQGTTVTVSSASTKGPQVQLQESGPGLVKPSETLSLTCTVSGFSLIGYDLNWIRQPPGKGLEWIGIIWGDGTTDYNSAVKSRVTISKDTSKNQFSLKLSSVTAADTAVYYCARGGYWYATSYYFDYWGQGTLVTVSS[gap - human IgG1 constant region]
light: DIQMTQSPSSLSASVGDRVTITCRASQGIRIDLGWYQQKPGKAPKRLIYAASTLQSGVPSRFSGSGSGTEFIFTISSLQPEDFASYYCLQHKSYPLTFGGGTKVEIKRTVAAPDIQMTQSPSSLSASVGDRVTITCRASQSISNNLNWYQQKPGKAPKLLIYYTSRFHSGVPSRFSGSGSGTDFTFTISSLQPEDIATYYCQQEHTLPYTFGQGTKLEIKRTVAAPSVFIFPPSDEQLKSGTASVVCLLNNFYPREAKVQWKVDNALQSGNSQESVTEQDSKDSTYSLSSTLTLSKADYEKHKVYACEVTHQGLSSPVTKSFNRGEC
notes: constant regions from vectors V1/V2; also called DVD1250H; DVD1250L
Consider B2, for which, in assay [3], the Kd amounted to 2.93 nM, the off-rate constant (koff) was found to be 1.02e-05 s⁻¹ and the kon amounted to 3480 M⁻¹ s⁻¹. Further, in assay [2], the Kd is 0.0214 nM, the koff turned out to be 4.61e-05 s⁻¹ and the association rate constant (kon) was determined as 2.16e+06 M⁻¹ s⁻¹. For the same molecule, the “N-terminal VD TNFα Neutralization Assay EC50 nM (L929 cells)” value in assay [4] worked out at 0.02 nM.

B3: DVD1232 (bispecific antibody, human IgG1, kappa)
heavy: QVQLKESGPGLVAPSQSLSITCTVSGFSLTDYGVNWVRQPPGKGLEWLGMIWGDGSTDYDSTLKSRLSISKDNSKSQIFLKMNSLQTDDTARYYCAREWHHGPVAYWGQGTLVTVSAASTKGPQVQLQESGPGLVKPSETLSLTCTVSGFSLIGYDLNWIRQPPGKGLEWIGIIWGDGTTDYNSAVKSRVTISKDTSKNQFSLKLSSVTAADTAVYYCARGGYWYATSYYFDYWGQGTLVTVSS[gap - human IgG1 constant region]
light: DIVMTQSHKFMSTTVGDRVSITCKASQAVSSAVAWYQQKPGQSPKLLIYWASTRHTGVPDRFTGSGSVTDFTLTIHNLQAEDLALYYCQQHYSTPFTFGSGTKLEIKRTVAAPDIQMTQSPSSLSASVGDRVTITCRASQSISNNLNWYQQKPGKAPKLLIYYTSRFHSGVPSRFSGSGSGTDFTFTISSLQPEDIATYYCQQEHTLPYTFGQGTKLEIKRTVAAPSVFIFPPSDEQLKSGTASVVCLLNNFYPREAKVQWKVDNALQSGNSQESVTEQDSKDSTYSLSSTLTLSKADYEKHKVYACEVTHQGLSSPVTKSFNRGEC
notes: constant regions from vectors V1/V2; also called DVD1232H; DVD1232L
Regarding B3, in assay [2], the Kd was 0.0535 nM, the off-rate constant (koff) was found to be 0.000104 s⁻¹ and the on-rate (kon) was 1.94e+06 M⁻¹ s⁻¹.

B4: DVD1259 (bispecific antibody, human IgG1, kappa)
heavy: QVQLQESGPGLVKPSETLSLTCTVSGFSLIGYDLNWIRQPPGKGLEWIGIIWGDGTTDYNSAVKSRVTISKDTSKNQFSLKLSSVTAADTAVYYCARGGYWYATSYYFDYWGQGTLVTVSSASTKGPEVQLVESGGGLIQPGGSLRLSCAASGFTVSRNYMSWVRQAPGKGLEWVSVIYSGDRTYYADSVKGRFTISRDNSKNTLYLQMNSLRAEDTAVYYCARGEGGFDYWGQGTLVTVSS[gap - human IgG1 constant region]
light: DIQMTQSPSSLSASVGDRVTITCRASQSISNNLNWYQQKPGKAPKLLIYYTSRFHSGVPSRFSGSGSGTDFTFTISSLQPEDIATYYCQQEHTLPYTFGQGTKLEIKRTVAAPEIVMTQSPATLSVSPGERATLSCRASQSVSSNLAWYQQKPGQAPRLLIHGASIRATGLPARFSGSGSGTEFTLTISSLQSEDFAVYYCQQYNYWWTFGQGTKVEIKRTVAAPSVFIFPPSDEQLKSGTASVVCLLNNFYPREAKVQWKVDNALQSGNSQESVTEQDSKDSTYSLSSTLTLSKADYEKHKVYACEVTHQGLSSPVTKSFNRGEC
notes: constant regions from vectors V1/V2; also called DVD1259H; DVD1259L
Turning to B4, in assay [3], the Kd turned out to be 0.0733 nM, the off-rate constant (koff) was determined as 6.07e-06 s⁻¹ and the kon amounted to 82800 M⁻¹ s⁻¹. In assay [2], the Kd came to 0.0733 nM and the dissociation rate constant (koff) was 6.07e-06 s⁻¹. The “N-Terminal VD NGF Inhibition Assay EC50 pM (ERK1/2 phosphorylation, Neuroscreen-1 cells)” value in assay [5] is 27 pM.
